{"source": "paper PMC4336329", "about": "(PLoS ONE, 2015)", "note": "The whole screen tested about 310,000 compounds, of which about 14,000 (4.5%) showed an effect of 50% or more. The effect is printed as a negative number. The list shows a part of the results.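 Note: peak tail current of the secondary pulse compared with the same well before compound.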"}
{"target": "human ether-à-go-go-related gene (hERG) potassium channel (human, UniProt Q12809)", "sequence (Q12809 whole entry, looked up)": "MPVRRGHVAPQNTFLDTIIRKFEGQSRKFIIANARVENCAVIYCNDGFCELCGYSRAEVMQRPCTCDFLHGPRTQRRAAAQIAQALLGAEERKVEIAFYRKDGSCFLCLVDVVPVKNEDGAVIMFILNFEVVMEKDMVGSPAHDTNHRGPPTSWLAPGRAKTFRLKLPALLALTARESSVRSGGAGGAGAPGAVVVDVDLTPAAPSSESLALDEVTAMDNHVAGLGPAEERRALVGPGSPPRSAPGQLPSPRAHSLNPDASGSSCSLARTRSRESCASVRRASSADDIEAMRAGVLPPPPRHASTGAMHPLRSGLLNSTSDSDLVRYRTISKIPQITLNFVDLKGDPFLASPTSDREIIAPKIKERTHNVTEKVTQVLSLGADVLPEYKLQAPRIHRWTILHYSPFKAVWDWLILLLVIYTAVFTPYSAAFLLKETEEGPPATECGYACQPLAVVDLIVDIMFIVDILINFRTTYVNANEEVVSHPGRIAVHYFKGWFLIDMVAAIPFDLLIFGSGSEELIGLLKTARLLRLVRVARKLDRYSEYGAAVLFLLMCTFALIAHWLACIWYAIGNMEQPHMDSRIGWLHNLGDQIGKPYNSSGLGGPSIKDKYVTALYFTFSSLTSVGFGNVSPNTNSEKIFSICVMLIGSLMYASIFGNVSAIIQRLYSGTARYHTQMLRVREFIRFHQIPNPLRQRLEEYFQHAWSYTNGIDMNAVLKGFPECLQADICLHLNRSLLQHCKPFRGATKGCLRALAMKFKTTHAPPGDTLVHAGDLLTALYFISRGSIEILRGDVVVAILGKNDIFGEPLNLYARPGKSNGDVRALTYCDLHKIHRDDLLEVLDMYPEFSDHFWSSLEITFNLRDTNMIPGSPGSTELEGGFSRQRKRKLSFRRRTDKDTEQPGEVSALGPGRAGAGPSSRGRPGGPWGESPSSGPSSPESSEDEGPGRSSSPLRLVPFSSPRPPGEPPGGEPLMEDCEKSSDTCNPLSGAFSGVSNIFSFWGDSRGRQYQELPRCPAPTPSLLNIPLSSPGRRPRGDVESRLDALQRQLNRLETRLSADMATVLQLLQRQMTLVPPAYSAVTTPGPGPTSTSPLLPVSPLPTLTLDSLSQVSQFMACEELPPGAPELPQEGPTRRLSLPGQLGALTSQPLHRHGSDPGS", "experiment": "primary screen, population patch clamp on CHO cells stably expressing hERG", "units": {"hERG current change (%, negative = inhibition) at 10uM": "%"}}
{"smiles": "Cc1nnc(SCC(=O)OC2CC(C)CCC2C(C)C)[nH]c1=O", "note": "(stereo not drawn)", "hERG current change (%, negative = inhibition) at 10uM": 11.1}
{"smiles": "O=C(COc1ccccc1Cl)Nc1ccc2c(c1)OCO2", "hERG current change (%, negative = inhibition) at 10uM": 11.1}
{"smiles": "CCC(CO)n1c(=S)[nH]c2cc(OC)c(OC)cc2c1=O", "note": "(stereo not drawn)", "hERG current change (%, negative = inhibition) at 10uM": 14.8}
{"smiles": "O=C(COc1ccccc1[N+](=O)[O-])N/N=C/c1cccc(OC(=O)c2ccc3c(c2)OCO3)c1", "hERG current change (%, negative = inhibition) at 10uM": -12.1}
{"smiles": "O=C(NCCOCCOCCNC(=O)c1ccccc1)c1ccccc1", "hERG current change (%, negative = inhibition) at 10uM": 12.7}
{"smiles": "COc1cccc(C(=O)Oc2cccc(N3C(=O)C4C5CC(C(Br)C5Br)C4C3=O)c2)c1", "note": "(stereo not drawn)", "hERG current change (%, negative = inhibition) at 10uM": -6.7}
{"smiles": "CC(=O)Oc1ccc(-c2csc(Nc3cccc(C)n3)n2)cc1", "hERG current change (%, negative = inhibition) at 10uM": 15.2}
{"smiles": "COc1cccc(-n2c(C)nc3ccccc3c2=O)c1", "hERG current change (%, negative = inhibition) at 10uM": -2.51}
{"smiles": "COC(=O)N(C)c1nc2ccccc2s1", "hERG current change (%, negative = inhibition) at 10uM": 2.85}
{"smiles": "CCOc1ccc(NC(=O)CN2CCN(c3ccc(F)cc3)CC2)cc1", "hERG current change (%, negative = inhibition) at 10uM": -22.2}
{"smiles": "Br.Cc1ccnc(Nc2nc(-c3sc(C)nc3C)cs2)c1", "hERG current change (%, negative = inhibition) at 10uM": 4.9}
{"smiles": "N#Cc1ccc(-c2csc(NNC(=O)c3ccc(Br)cc3)n2)cc1", "hERG current change (%, negative = inhibition) at 10uM": -3.4}
{"smiles": "CCN(CC(=O)Nc1cccc(OC)c1)CC(=O)Nc1ccc(Br)c(C)c1", "hERG current change (%, negative = inhibition) at 10uM": 14.5}
{"smiles": "Cc1ccc2occ(C(c3nnnn3Cc3ccccc3)N3CCOCC3)c(=O)c2c1", "note": "(stereo not drawn)", "hERG current change (%, negative = inhibition) at 10uM": 1.59}
{"smiles": "CN(C)CCCNc1ccc(-c2cc(Nc3cccc(Cl)c3)ncn2)cn1", "hERG current change (%, negative = inhibition) at 10uM": -58.4}
{"smiles": "CCOCC(=O)Nc1ccc(S(=O)(=O)Nc2ncccn2)cc1", "hERG current change (%, negative = inhibition) at 10uM": 17.7}
{"smiles": "CC(=O)C[C@H]1c2cc(C(F)(F)F)ccc2S(=O)(=O)N1c1ccccc1", "hERG current change (%, negative = inhibition) at 10uM": -7.57}
{"smiles": "COc1nc2ccccc2nc1N1CCN(C)CC1", "hERG current change (%, negative = inhibition) at 10uM": -23.9}
{"smiles": "CCN(c1cccc(C)c1)S(=O)(=O)c1ccc(-c2ccc(=O)[nH]n2)o1", "hERG current change (%, negative = inhibition) at 10uM": 9.92}
{"smiles": "CCN1CCN(c2nc3c(c(=O)[nH]c(=O)n3C)n2CCCc2ccccc2)CC1", "hERG current change (%, negative = inhibition) at 10uM": -79.2}
{"smiles": "CC(=O)c1cccc(NCC(=O)Nc2cccc(S(=O)(=O)N3CCCCC3)c2)c1", "hERG current change (%, negative = inhibition) at 10uM": -31.6}
{"smiles": "CCn1cc(S(=O)(=O)CC(=O)Nc2ccc(C)cc2)c2ccccc21", "hERG current change (%, negative = inhibition) at 10uM": 17.5}
{"smiles": "COCCN(C(=O)CSc1nc2ccccc2c(=O)n1CCOC)c1c(N)n(Cc2ccccc2)c(=O)[nH]c1=O", "hERG current change (%, negative = inhibition) at 10uM": 11}
{"smiles": "COc1cccc(C2=NN(C(=O)c3cccs3)C(O)(C(F)(F)F)C2)c1", "note": "(stereo not drawn)", "hERG current change (%, negative = inhibition) at 10uM": 21}
{"smiles": "CCCCNC(=O)C1(c2ccc(OC)cc2)CCOCC1", "hERG current change (%, negative = inhibition) at 10uM": 18.4}
{"smiles": "Cc1cc2nc(CS)[nH]c2cc1C", "hERG current change (%, negative = inhibition) at 10uM": 16}
{"smiles": "COn1c(C)c(C(C)=O)c2c3no[n+]([O-])c3ccc21", "hERG current change (%, negative = inhibition) at 10uM": 17.1}
{"smiles": "CCN(C(=S)NCc1ccccc1)c1cccc2ccccc12", "hERG current change (%, negative = inhibition) at 10uM": 30.1}
{"smiles": "COc1cc(C=O)ccc1OCCCCOc1ccccc1[N+](=O)[O-]", "hERG current change (%, negative = inhibition) at 10uM": -10.9}
{"smiles": "COc1cc(/C=C/C(=O)OCC(=O)Nc2nnc(-c3ccccc3)o2)cc(OC)c1OC", "hERG current change (%, negative = inhibition) at 10uM": -4.67}
{"smiles": "Cc1ccccc1COC(=O)CCC1=NS(=O)(=O)c2ccccc2N1", "hERG current change (%, negative = inhibition) at 10uM": 6.03}
{"smiles": "C#CC(=O)N(c1ccc(OC)c(OC)c1)C(C(=O)NC1CCCC1)c1cccs1.Cl", "note": "(stereo not drawn)", "hERG current change (%, negative = inhibition) at 10uM": 10.2}
{"smiles": "O=C(COc1ccc(-n2cnnn2)cc1)Nc1ccccc1Cl", "hERG current change (%, negative = inhibition) at 10uM": 18.2}
{"smiles": "O=C(Nc1ccc(F)cc1)C1CCN(C(=O)c2ccc(F)cc2)CC1", "hERG current change (%, negative = inhibition) at 10uM": -37.4}
{"smiles": "COCCN1C(=O)c2oc3ccccc3c(=O)c2C1c1ccc(O)c(OC)c1", "note": "(stereo not drawn)", "hERG current change (%, negative = inhibition) at 10uM": 3.72}
{"smiles": "COc1ccc(/C=N/NC(=O)CSCC(=O)Nc2ccccc2)cc1", "hERG current change (%, negative = inhibition) at 10uM": 13.8}
{"smiles": "CCOc1ccccc1NC(=O)C(c1ccccc1)N1CCN(CC(=O)N2CCOCC2)CC1", "note": "(stereo not drawn)", "hERG current change (%, negative = inhibition) at 10uM": -76.1}
{"smiles": "Cc1ccc(S(=O)(=O)N2CCOCC2)cc1NC(=O)COC(=O)CNC(=O)c1ccc(Oc2ccccc2)cc1", "hERG current change (%, negative = inhibition) at 10uM": -0.374}
{"smiles": "CCC1(CC)NC(=O)N(CC(=O)OCC(=O)c2ccccc2OC)C1=O", "hERG current change (%, negative = inhibition) at 10uM": 0.647}
{"smiles": "Cc1cccc(N2CCN(C(=O)NC3CCCCC3)CC2C)c1", "note": "(stereo not drawn)", "hERG current change (%, negative = inhibition) at 10uM": 4.08}
{"smiles": "Cc1ccccc1-n1nnnc1SCC(N)=O", "hERG current change (%, negative = inhibition) at 10uM": 12.7}
{"smiles": "COc1cc(C(=O)NNC(=O)NC2CCCCC2)cc(OC)c1OC", "hERG current change (%, negative = inhibition) at 10uM": 6.32}
{"smiles": "CN(C(=O)c1cc2c(=O)n3ccccc3nc2n1C)C1CCCCC1", "hERG current change (%, negative = inhibition) at 10uM": -11.2}
{"smiles": "O=C(Nc1ccccc1N1CCOCC1)c1ccc2c(c1)OCCO2", "hERG current change (%, negative = inhibition) at 10uM": -11}
{"smiles": "Cc1cc(OCC(=O)NC(C)C)cc(C)c1Cl", "hERG current change (%, negative = inhibition) at 10uM": -3.7}
{"smiles": "CCOc1cccc(C2C(C(=O)c3ccc(C)o3)=C(O)C(=O)N2CCCn2ccnc2)c1", "note": "(stereo not drawn)", "hERG current change (%, negative = inhibition) at 10uM": -8.37}
{"smiles": "O=C(CO/N=C1\\CCCc2nonc21)Nc1ccc(Br)cc1", "hERG current change (%, negative = inhibition) at 10uM": -15}
{"smiles": "CS(=O)(=O)NCCNc1ccc(C(F)(F)F)cc1[N+](=O)[O-]", "hERG current change (%, negative = inhibition) at 10uM": -6.08}
{"smiles": "CC(=O)N(/C=C1\\SC(=S)N(c2ccccc2)C1=O)c1ccccc1", "hERG current change (%, negative = inhibition) at 10uM": -7.86}
{"smiles": "O=c1[nH]c(-c2ccccc2)nc2ccccc12", "hERG current change (%, negative = inhibition) at 10uM": 15.4}
{"smiles": "COC(=O)C1=C(C)N(c2cc(C)cc(C)c2)/C(=C/c2ccc(O)cc2)C1=O", "hERG current change (%, negative = inhibition) at 10uM": -2.57}
{"smiles": "CCOc1cc2[nH]c(=O)n(CCCN3CCN(c4ccc(OC)cc4)CC3)c(=O)c2cc1OCC", "hERG current change (%, negative = inhibition) at 10uM": -67.8}
{"smiles": "COc1cc2c(cc1OC)CN(C(=O)/C=C/c1ccc([N+](=O)[O-])cc1)CC2", "hERG current change (%, negative = inhibition) at 10uM": -55.1}
{"smiles": "CCOc1ccc(Nc2nc(CC(=O)OC)cc(=O)[nH]2)cc1", "hERG current change (%, negative = inhibition) at 10uM": -0.095}
{"smiles": "NNC(=O)C(Cc1cnc[nH]1)NC(=O)OCc1ccccc1", "note": "(stereo not drawn)", "hERG current change (%, negative = inhibition) at 10uM": 12.3}
{"smiles": "COCCCNC(=O)C1=CCN(S(=O)(=O)c2ccc(C)cc2)CC1", "hERG current change (%, negative = inhibition) at 10uM": -2.19}
{"smiles": "CCN(CC)CCNC(=O)CCCCn1c(=S)[nH]c2c([nH]c3ccc(OC)cc32)c1=O", "hERG current change (%, negative = inhibition) at 10uM": 33.2}
